# Data from PubChem BioAssay (Tox21).
# “And” between values parts separate entries of the source, which are not always exact repeats. Equal entries are not always repeated. This list was built around the results that the source calls inconclusive (neither active nor inactive); the mix of calls is not that of the screen. For some assays here: Where the call is inconclusive, the potency comes from a doubtful curve fit. The source made the active and inactive calls. Unless noted, the call rests on the fitted dose curve; in most records, active means well fitted curve in the direction sought with a large enough effect in the repeat runs; inconclusive means weak or mixed curves; inactive means no such curve, though single readings can be large; an effect the other way counts as inactive or inconclusive.
# How the values were obtained:
# [1] = target: Peroxisome proliferator-activated receptor gamma (Homo sapiens) (UniProt P37231); test: qHTS assay to identify small molecule antagonists of the peroxisome proliferator-activated receptor gamma (PPARg) signaling pathway (AID 743191; calls by dose curve; further: nearly all actives have a fitted effect of over 30% in size; further: potency means the concentration at half of the fitted maximal effect; on ratio activity, negative = inhibition: on the % scale 0 is the no-effect control and ±100 the full control effect); settings: HEK293H PPARg-UAS-bla, beta-lactamase ratio, antagonist, 17 h; ratio activity, negative = inhibition: at 62.6 µM (top of the series) unless noted
# Sequence of UniProt P37231 (P37231 whole entry, looked up): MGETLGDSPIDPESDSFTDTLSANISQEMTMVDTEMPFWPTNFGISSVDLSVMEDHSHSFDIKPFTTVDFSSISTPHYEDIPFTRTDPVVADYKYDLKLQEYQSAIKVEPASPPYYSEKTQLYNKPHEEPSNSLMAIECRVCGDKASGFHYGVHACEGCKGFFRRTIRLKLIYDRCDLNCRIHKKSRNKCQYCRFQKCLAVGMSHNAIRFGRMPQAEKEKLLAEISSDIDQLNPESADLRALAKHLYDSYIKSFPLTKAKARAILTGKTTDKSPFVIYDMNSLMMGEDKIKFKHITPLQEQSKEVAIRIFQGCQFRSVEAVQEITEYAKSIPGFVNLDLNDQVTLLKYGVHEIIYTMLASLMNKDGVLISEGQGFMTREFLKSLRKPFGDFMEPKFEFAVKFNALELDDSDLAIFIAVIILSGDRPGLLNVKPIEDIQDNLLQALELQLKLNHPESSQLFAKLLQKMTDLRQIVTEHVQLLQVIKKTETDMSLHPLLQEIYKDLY
# Method in brief: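 Beta-lactamase reporter under UAS control in HEK293H PPARg-bla cells; compound treatment 17 h at 37C. Read-out: fluorescence intensity after 1 h room-temperature incubation with LiveBLAzer B/G FRET substrate.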
# [2] = qHTS assay for small molecule agonists of the antioxidant response element (ARE) signaling pathway (AID 743202; active means well fitted activation curve with a large enough effect in the signal ratio in the repeat runs, not every such curve was filed as active; inconclusive means weak or mixed curves, or effect the other way; inactive means no such curve, though single readings can be large or run the other way; the % refers to the signal ratio; further: potency means the concentration at half of the fitted maximal effect; on activation: on the % scale 0 is the no-effect control and ±100 the full control effect); settings: HepG2 ARE-bla reporter, beta-lactamase FRET, 16 h; activation: at 73.3 µM (top of the series) unless noted
# Method in brief: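 After 16 hours of compound treatment at 37 C, HepG2 cells with a stably integrated ARE-driven beta-lactamase reporter were loaded 2 hours at room temperature with LiveBLAzer B/G FRET substrate and fluorescence intensity measured.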
# [3] = qHTS assay for small molecule activators of the heat shock response signaling pathway - cell viability counter screen (AID 743209); settings: HSE-bla HeLa viability, CellTiter-Glo luminescence, 5 h; activity change, negative = cytotoxicity: at 62.6 µM (top of the series) unless noted; further: nearly all actives have a fitted effect of over 50% in size; further: potency means the concentration at half of the fitted maximal effect; on activity change, negative = cytotoxicity: on the % scale 0 is the no-effect control and ±100 the full control effect
# Method in brief: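 HSE-bla HeLa; 1500 cells/well; overnight 37 C, 5% CO2; compound 5 h 37 C; LiveBLAzer B/G substrate 2.5 h RT; CellTiter-Glo 30 min RT; luminescence.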
# [4] = qHTS assay to identify small molecule agonists of the farnesoid-X-receptor (FXR) signaling pathway - cell viability counter screen (AID 743218); settings: FXR-bla HEK293T viability, CellTiter-Glo luminescence, 16 h; viability change, negative = cytotoxic: at 62.6 µM (top of the series) unless noted; further: nearly all actives have a fitted effect of over 45% in size; further: potency means the concentration at half of the fitted maximal effect
# Method in brief: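 Luminescence from CellTiter-Glo, read after 30 min at RT, reports viability of GeneBLAzer FXR-UAS-bla HEK 293T cells treated 16 h with compounds in the wells used for the beta-lactamase reporter.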
# [5] = qHTS assay to identify small molecule antagonists of the vitamin D receptor (VDR) signaling pathway - cell viability counter screen (AID 743225); settings: VDR-bla HEK293T viability, CellTiter-Glo luminescence, 16 h; viability change, negative = cytotoxic: at 61 µM (top of the series) unless noted; further: nearly all actives have a fitted effect of over 50% in size; further: potency means the concentration at half of the fitted maximal effect
# Method in brief: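 Parallel cytotoxicity test: VDR-UAS-bla HEK 293T, 3 nM (final) 1-alpha,25-dihydroxyvitamin D3 with test compound, 16 h, 37C. Endpoint is CellTiter-Glo luminescence in the same wells.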
# [6] = qHTS assay to identify small molecule agonists of the endoplasmic reticulum stress response signaling pathway (AID 1159516; active means well fitted activation curve with a large enough effect in the signal ratio in the repeat runs, not every such curve was filed as active; inconclusive means weak or mixed curves, or effect the other way; the % refers to the signal ratio; further: potency means the concentration at half of the fitted maximal effect); settings: ESRE-bla HeLa, ER stress beta-lactamase reporter, 5 h; activation: at 61 µM (top of the series) unless noted
# Method in brief: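 HeLa ESRE-bla reporter line; cpd 5 h, 37 C/5% CO2; LiveBLAzer B/G FRET substrate 2 h RT; ex 405, em 460/530 nm.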
# [7] = qHTS assay to identify small molecule antagonists of the peroxisome proliferator-activated receptor gamma (PPARg) signaling pathway - cell viability counter screen (AID 743194); settings: PPARg-bla HEK293H viability, CellTiter-Glo luminescence, 17 h; Potency: co-treated with 50 nM rosiglitazone unless noted; activity change, negative = cytotoxicity: at 62.6 µM (top of the series), co-treated with 50 nM rosiglitazone unless noted; further: nearly all actives have a fitted effect of over 55% in size; further: potency means the concentration at half of the fitted maximal effect
# Method in brief: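 Viability was measured as CellTiter-Glo luminescence in GeneBLAzer PPARg UAS-bla HEK293H cells. These cells had been exposed 17 h at 37 C to compounds together with rosiglitazone at 50 nM final, with the beta-lactamase readout taken in the same wells.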
# [8] = qHTS assay to identify small molecule antagonists of the peroxisome proliferator-activated receptor delta (PPARd) signaling pathway - cell viability counter screen (AID 743213); settings: PPARd-bla HEK293H viability, CellTiter-Glo luminescence, 17 h; viability change, negative = cytotoxic: at 62 µM (top of the series) unless noted; further: potency means the concentration at half of the fitted maximal effect; nearly all actives have a fitted effect of over 50% in size
# Method in brief: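 Luminescence from CellTiter-Glo, added after the bla read and incubated 30 min at room temperature, gives viability of HEK293H PPARd-bla cells exposed to compounds for 17 h at 37 C with 300 nM L165041.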
# [9] = target: Peroxisome proliferator-activated receptor delta (Homo sapiens) (UniProt Q03181); test: qHTS assay to identify small molecule antagonists of the peroxisome proliferator-activated receptor delta (PPARd) signaling pathway (AID 743215; active means well fitted inhibition curve with a large enough effect in the signal ratio in the repeat runs, not every such curve was filed as active; inconclusive means weak or mixed curves, or effect the other way; inactive means no such curve, though single readings can be large or run the other way; the % refers to the signal ratio;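 further: cells stimulated with agonist L165041 at 300 nM final during compound exposure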; further: potency means the concentration at half of the fitted maximal effect); settings: HEK293H PPARd-UAS-bla, beta-lactamase FRET ratio, antagonist, 17 h; ratio activity, negative = inhibition: at 62 µM (top of the series) unless noted
# Sequence of UniProt Q03181 (Q03181 whole entry, looked up): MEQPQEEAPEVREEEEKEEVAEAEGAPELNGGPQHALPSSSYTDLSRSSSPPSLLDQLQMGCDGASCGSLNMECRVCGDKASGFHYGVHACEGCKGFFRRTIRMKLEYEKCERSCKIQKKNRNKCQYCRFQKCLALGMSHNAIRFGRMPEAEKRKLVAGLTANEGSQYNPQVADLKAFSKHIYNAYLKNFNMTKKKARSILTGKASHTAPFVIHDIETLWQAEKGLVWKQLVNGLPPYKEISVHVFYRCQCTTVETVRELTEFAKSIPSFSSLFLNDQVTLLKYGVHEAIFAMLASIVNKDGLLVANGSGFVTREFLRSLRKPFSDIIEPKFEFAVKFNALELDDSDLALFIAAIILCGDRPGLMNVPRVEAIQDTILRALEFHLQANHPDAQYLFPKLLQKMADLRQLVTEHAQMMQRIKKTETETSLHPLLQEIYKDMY
# Method in brief: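 HEK293H GeneBLAzer PPARd UAS-bla reporter cells; cpd + L165041 300 nM final, 17 h 37 C; LiveBLAzer B/G FRET substrate 2 h RT; fluorescence intensity read-out. Antagonist mode.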
# [10] = qHTS assay to identify small molecule antagonists of the farnesoid-X-receptor (FXR) signaling pathway - cell viability counter screen (AID 743221; active means well fitted cell-killing curve with a large enough effect in the repeat runs, not every such curve was filed as active; inconclusive means weak or mixed curves, or effect the other way; inactive means no such curve, though single readings can be large or run the other way; further: nearly all actives have a fitted effect of over 50% in size; further: potency means the concentration at half of the fitted maximal effect); settings: FXR-bla HEK293T viability, CellTiter-Glo luminescence, 16 h; activity change, negative = cytotoxicity: at 62.6 µM (top of the series) unless noted
# Method in brief: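 After a 5 h settling period, FXR-bla HEK 293T cells receive compound and chenodeoxycholic acid (50 uM final) and incubate 16 h at 37 C; CellTiter-Glo luminescence, read after 30 min at room temperature, reports cell viability.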
# [11] = target: Vitamin D3 receptor (Homo sapiens) (UniProt P11473); test: qHTS assay to identify small molecule agonists of the vitamin D receptor (VDR) signaling pathway (AID 743222; calls by dose curve; further: potency means the concentration at half of the fitted maximal effect); settings: HEK293T VDR-UAS-bla, beta-lactamase FRET ratio, 16 h; activation: at 63.5 µM (top of the series) unless noted
# Sequence of UniProt P11473 (P11473 whole entry, looked up): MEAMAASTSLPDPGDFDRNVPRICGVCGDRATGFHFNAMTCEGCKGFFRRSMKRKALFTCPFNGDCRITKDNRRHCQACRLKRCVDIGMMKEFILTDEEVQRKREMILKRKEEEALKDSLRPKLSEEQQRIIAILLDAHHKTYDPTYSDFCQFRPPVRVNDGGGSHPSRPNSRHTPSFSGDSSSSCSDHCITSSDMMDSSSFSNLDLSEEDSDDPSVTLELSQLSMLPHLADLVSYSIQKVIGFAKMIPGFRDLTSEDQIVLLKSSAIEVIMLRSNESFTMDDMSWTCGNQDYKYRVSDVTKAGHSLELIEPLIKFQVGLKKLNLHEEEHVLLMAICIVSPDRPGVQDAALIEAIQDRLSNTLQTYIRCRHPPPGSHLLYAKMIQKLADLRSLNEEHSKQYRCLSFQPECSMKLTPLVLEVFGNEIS
# Method in brief: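 Beta-lactamase reporter readout (LiveBLAzer B/G FRET, 2 h RT) in VDR-bla cells after 16 h compound treatment at 37C, 5% CO2; cells pre-incubated 4 h before pin transfer of DMSO solutions.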
# [12] = qHTS assay to identify small molecule agonists of the vitamin D receptor (VDR) signaling pathway - cell viability counter screen (AID 743224)
# Method in brief: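 Cytotoxicity counter screen: VDR-bla cells, 16 h compound exposure at 37C, 5% CO2; CellTiter-Glo luminescence, 30 min RT, same wells as bla read.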
# [13] = qHTS assay for small molecule agonists of the antioxidant response element (ARE) signaling pathway - cell viability counter screen (AID 743203; calls by dose curve; further: potency means the concentration at half of the fitted maximal effect; nearly all actives have a fitted effect of over 55% in size)
# Method in brief: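 Luminescence read-out (CellTiter-Glo, 30 min at room temperature) measured cell viability in the same wells as the ARE beta-lactamase reporter. HepG2 ARE-bla cells were treated with compounds for 16 hrs at 37C/5% CO2.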
# [14] = qHTS assay to identify small molecule agonists of the peroxisome proliferator-activated receptor delta (PPARd) signaling pathway - cell viability counter screen (AID 743211); settings: PPARd-bla HEK293H viability, CellTiter-Glo luminescence, 17 h; activity change, negative = cytotoxicity: at 62.6 µM (top of the series) unless noted; further: potency means the concentration at half of the fitted maximal effect; nearly all actives have a fitted effect of over 55% in size
# Method in brief: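 qHTS cell viability: PPARd-bla HEK293H; 17 h cpd, 37C; CellTiter-Glo, luminescence at 30 min RT.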
# [15] = target: Peroxisome proliferator-activated receptor delta (Homo sapiens) (UniProt Q03181); test: qHTS assay to identify small molecule agonists of the peroxisome proliferator-activated receptor delta (PPARd) signaling pathway (AID 743212; calls by dose curve; further: on the % scale 0 is the no-effect control and ±100 the full control effect); settings: HEK293H PPARd-UAS-bla, beta-lactamase FRET ratio, 17 h; activation: at 62.6 µM (top of the series) unless noted
# Method in brief: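 Beta-lactamase reporter readout: a ratiometric FRET signal from the LiveBLAzer substrate after 2 h at room temperature. Compound exposure at 37 °C in PPARδ-bla HEK293H cells driven by an upstream activator sequence.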
# [16] = target: Bile acid receptor (Homo sapiens) (UniProt Q96RI1); test: qHTS assay to identify small molecule antagonists of the farnesoid-X-receptor (FXR) signaling pathway (AID 743217; active means well fitted inhibition curve with a large enough effect in the signal ratio in the repeat runs, not every such curve was filed as active; inconclusive means weak or mixed curves, or effect the other way; inactive means no such curve, though single readings can be large or run the other way; the % refers to the signal ratio; further: potency means the concentration at half of the fitted maximal effect); settings: HEK293T FXR-UAS-bla, beta-lactamase ratio, CDCA-stimulated, 16 h; activity change, negative = inhibition: at 62.6 µM (top of the series) unless noted
# Sequence of UniProt Q96RI1 (Q96RI1 whole entry, looked up): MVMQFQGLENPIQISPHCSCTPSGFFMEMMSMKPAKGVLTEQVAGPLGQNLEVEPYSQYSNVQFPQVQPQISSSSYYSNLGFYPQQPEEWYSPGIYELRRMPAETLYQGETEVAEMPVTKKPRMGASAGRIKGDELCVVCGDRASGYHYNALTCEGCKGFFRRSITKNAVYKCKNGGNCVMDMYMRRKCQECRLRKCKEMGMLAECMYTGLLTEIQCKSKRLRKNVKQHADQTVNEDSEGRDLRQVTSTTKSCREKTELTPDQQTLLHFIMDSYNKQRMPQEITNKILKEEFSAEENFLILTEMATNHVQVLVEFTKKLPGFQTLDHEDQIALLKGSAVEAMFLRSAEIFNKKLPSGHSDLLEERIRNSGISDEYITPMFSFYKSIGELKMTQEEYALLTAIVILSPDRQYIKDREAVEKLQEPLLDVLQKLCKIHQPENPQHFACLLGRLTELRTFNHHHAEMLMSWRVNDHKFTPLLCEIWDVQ
# Method in brief: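 Read-out: beta-lactamase FRET fluorescence (LiveBLAzer B/G substrate, 2 h, room temperature) in GeneBLAzer FXR-UAS-bla HEK 293T cells. Compounds were co-dosed with 50 uM chenodeoxycholic acid (final) and incubated 16 h at 37 °C.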
# [17] = target: Vitamin D3 receptor (Homo sapiens) (UniProt P11473); test: qHTS assay to identify small molecule antagonists of the vitamin D receptor (VDR) signaling pathway (AID 743223; active means well fitted inhibition curve with a large enough effect in the signal ratio in the repeat runs, not every such curve was filed as active; inconclusive means weak or mixed curves, or effect the other way; inactive means no such curve, though single readings can be large or run the other way; the % refers to the signal ratio; further: potency means the concentration at half of the fitted maximal effect); settings: VDR-UAS-bla HEK293T, beta-lactamase FRET ratio, 16 h; activity change, negative = inhibition: at 61 µM (top of the series) unless noted
# Method in brief: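 Reporter line VDR-bla; stimulus 1alpha,25-(OH)2 vitamin D3, 3 nM final; compound co-addition, 16 h 37C/5% CO2; LiveBLAzer B/G substrate 2 h RT; fluorescence intensity.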
# [18] = qHTS assay for small molecule activators of the heat shock response signaling pathway (AID 743210; active means well fitted activation curve with a large enough effect in the signal ratio in the repeat runs, with a control signal flat, not every such curve was filed as active; inconclusive means weak or mixed curves; the % refers to the signal ratio; further: potency means the concentration at half of the fitted maximal effect); settings: HeLa HSE-bla reporter, beta-lactamase ratio, 5 h; activation: at 62.6 µM (top of the series)
# Method in brief: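 Compound exposure lasted 5 h at 37 C in HeLa cells carrying a heat-shock-element-driven beta-lactamase reporter. Read-out: fluorescence intensity after 2.5 h room-temperature loading with LiveBLAzer B/G FRET substrate.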
# Tags describe the fitted curve by direction and shape or compound fluorescence and quenching.
structure (smiles),measurement,setting,value
CC(O)CCO (configuration not stated),"ratio activity, negative = inhibition",[1],inconclusive: -4.59%
same,Potency,[2],inactive and inconclusive: 30.6 µM
same,Potency,[3],inactive
same,Potency,[4],"inconclusive: 0.0025 µM [rising, full curve, poor fit]"
same,Potency,[5],inactive
same,Potency,[6],"inconclusive: 6.92 µM [rising, partial curve, poor fit]"
Cc1ncsc1CCCl,"ratio activity, negative = inhibition",[1],inconclusive: 15.9%
same,Potency,[7],"inconclusive: 1.33 µM [cytotoxic, partial curve, poor fit]"
same,Potency,[8],"inconclusive: 7.5 µM [cytotoxic, single point]"
same,"ratio activity, negative = inhibition",[9],inconclusive: 0.399%
same,Potency,[6],inactive
CCCCCCCCCCCCCN1CC(C)OC(C)C1 (configuration not stated),Potency,[1],"inconclusive: 49 µM [activator, partial curve, poor fit]"
same,activation,[2],inconclusive: -0.749%
same,Potency,[6],inconclusive: 49 µM [cytotoxic]
CCCn1cc[n+](C)c1,Potency,[1],inactive
same,activation,[2],inconclusive: 16% [at 94.8 µM]
same,Potency,[3],inactive
same,Potency,[4],"inconclusive: 0.487 µM [rising, full curve, poor fit]"
same,Potency,[10],inactive
same,Potency,[5],inactive
same,Potency,[6],inactive
CCCCCCCCCC(=O)O[C@H]1CC[C@H]2[C@@H]3CCC4=CC(=O)CC[C@@H]4[C@H]3CC[C@]12C,Potency,[1],inactive
same,activation,[2],inconclusive: 0.799%
same,Potency,[3],"inconclusive: 133 nM [cytotoxic, full curve, poor fit]"
same,Potency,[11],"inconclusive: 21.1 µM [rising, partial curve]"
same,Potency,[12],"inconclusive: 29.8 µM [cytotoxic, single point]"
same,activation,[6],inconclusive: -10.9%
O=C1NCN(c2ccccc2)C12CCN(CCCOc1ccc(F)cc1)CC2,"ratio activity, negative = inhibition",[1],inconclusive: -33.1% [inhibitor]
same,Potency,[2],active: 2.37 µM
same,Potency,[13],"inconclusive: 3.35 µM [rising, single point]"
same,Potency,[14],"inconclusive: 29.8 µM [cytotoxic, partial curve]"
same,Potency,[15],inactive
same,Potency,[16],inconclusive: 29.8 µM [fluorescent]
same,Potency,[4],"inconclusive: 23.7 µM [cytotoxic, partial curve, poor fit]"
same,Potency,[11],inactive
same,"activity change, negative = inhibition",[17],inconclusive: -23.4%
same,Potency,[12],"inconclusive: 5.96 µM [rising, partial curve, poor fit]"
same,Potency,[6],inconclusive: 8.49 µM [activator]
Nc1ccc(N=Nc2ccc(-c3ccc(N=Nc4c(S(=O)(=O)O)cc5cc(S(=O)(=O)O)c(N=Nc6ccccc6)c(O)c5c4N)cc3)cc2)c(N)c1,"ratio activity, negative = inhibition",[1],inconclusive: -21.3%
same,Potency,[7],inactive
same,Potency,[18],inconclusive: 33.4 µM
same,Potency,[15],inactive
same,Potency,[8],"inconclusive: 31.6 µM [cytotoxic, partial curve, poor fit]"
same,"ratio activity, negative = inhibition",[9],inconclusive: -29.5%
same,Potency,[4],"inconclusive: 35.4 µM [cytotoxic, single point]"
same,"activity change, negative = cytotoxicity",[10],inconclusive: -36.9%
same,activation,[11],inconclusive: -12.9%
same,Potency,[12],inconclusive: 31.6 µM [cytotoxic]
same,Potency,[5],"inconclusive: 35.4 µM [cytotoxic, single point]"
same,Potency,[6],"inconclusive: 28.1 µM [cytotoxic, single point]"
CN(C)C1CSSSC1,"ratio activity, negative = inhibition",[1],inconclusive: 20.5%
same,Potency,[2],active: 34.3 µM
same,"viability change, negative = cytotoxic",[4],inconclusive: 35.9%
same,Potency,[17],"inconclusive: 54.9 µM [activator, single point]"
same,activation,[6],inconclusive: -0.303%
O=P1(NCCCl)OCCCN1CCCl (configuration not stated),"ratio activity, negative = inhibition",[1],inconclusive: 1.33%
same,Potency,[2],inactive
same,Potency,[14],"inconclusive: 48.9 µM [rising, partial curve, poor fit]"
same,Potency,[8],"inconclusive: 13.3 µM [cytotoxic, single point]"
same,activation,[6],inconclusive: 2.72%
Oc1ccccc1-c1ccccc1,Potency,[1],"inconclusive: 50.1 µM [inhibitor, partial curve]"
same,activation,[2],inconclusive: 19.6% and inconclusive: 6.24%
same,Potency,[8],"inconclusive: 63.1 µM [cytotoxic, partial curve, poor fit]"
same,Potency,[9],"inconclusive: 2.45 µM [fluorescent, full curve, poor fit]"
same,"ratio activity, negative = inhibition",[9],inconclusive: -83% [at 80.4 µM]
same,Potency,[4],inactive
same,"activity change, negative = inhibition",[17],inconclusive: -0.834% and inconclusive: -34.8%
same,Potency,[6],"inconclusive: 0.0056 µM [falling, full curve]"
CC(C)(C)OOC(C)(C)C,"ratio activity, negative = inhibition",[1],inconclusive: 5.74% and inconclusive: -5.85%
same,Potency,[2],inactive
same,"activity change, negative = inhibition",[16],inconclusive: 3.6%
same,Potency,[10],"inconclusive: 678 nM [falling, full curve, poor fit]"
same,Potency,[6],inactive
O=S(=O)(Cl)c1ccccc1,Potency,[1],inactive
same,Potency,[2],inactive
same,"ratio activity, negative = inhibition",[9],inconclusive: -0.255% [at 80.4 µM]
same,Potency,[6],inconclusive: 22 µM [activator]
